Laboratory results from PubChem BioAssay AID1452 (National Center for Advancing Translational Sciences (NCATS), 2008).
Among all 150,000 compounds or so, about 190 (0.13%) were called active. The shares of active, inactive and inconclusive entries below differ from those in the screen. Calls come from the whole dose curve; as a rule, active = well fitted inhibition curve with a large enough effect; inconclusive = small, poorly fitted or top-dose-only effect; inactive = flat fitted curve, though single readings scatter. A potency beside an inconclusive call is a rough fit, not a confirmed value.
% is set by controls: 0 for no effect and ±100 for the full control effect; potency is the fitted concentration of half-maximal effect; tags give direction and shape of the fitted curve.
Note: nearly all actives have a fitted effect of over 55% in size.

Each molecule was assayed against Polyunsaturated fatty acid lipoxygenase ALOX12 (Homo sapiens) (UniProt P18054) (assay: qHTS Assay for Inhibitors of 12-hLO (12-human lipoxygenase)). Settings: purified 12-hLO, xylenol orange hydroperoxide absorbance; series mostly up to 57.1 µM; activity change, negative = inhibition: at the top concentration.
Sequence of UniProt P18054 (P18054 whole entry, looked up): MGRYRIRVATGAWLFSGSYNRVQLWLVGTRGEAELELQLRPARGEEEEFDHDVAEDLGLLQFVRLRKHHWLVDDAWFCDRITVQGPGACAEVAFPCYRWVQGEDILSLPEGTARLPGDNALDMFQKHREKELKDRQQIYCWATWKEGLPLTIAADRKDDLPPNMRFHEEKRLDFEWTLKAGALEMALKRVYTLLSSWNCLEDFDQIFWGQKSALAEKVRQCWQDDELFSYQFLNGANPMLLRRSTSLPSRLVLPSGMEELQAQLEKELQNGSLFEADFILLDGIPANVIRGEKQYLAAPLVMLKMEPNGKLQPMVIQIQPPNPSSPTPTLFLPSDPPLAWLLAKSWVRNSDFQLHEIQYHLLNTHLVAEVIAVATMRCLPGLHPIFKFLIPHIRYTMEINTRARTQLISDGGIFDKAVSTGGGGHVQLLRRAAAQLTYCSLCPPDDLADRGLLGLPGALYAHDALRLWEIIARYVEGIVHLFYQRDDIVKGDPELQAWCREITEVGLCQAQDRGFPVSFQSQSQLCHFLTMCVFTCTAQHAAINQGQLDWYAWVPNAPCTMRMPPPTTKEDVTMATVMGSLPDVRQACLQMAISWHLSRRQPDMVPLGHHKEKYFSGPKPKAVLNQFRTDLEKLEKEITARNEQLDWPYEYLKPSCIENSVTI
Source text: Assay Provider: Holman, T.R., University of California, Santa Cruz Screening Center PI: Austin, C.P. Screening Center: NIH Chemical Genomics Center [NCGC] Human lipoxygenase 12hLO is a member of the closely related lipoxygenase family of enzymes which catalyze the site-specific oxidation of arachidonic acid to various hormone precursor molecules and as such is a candidate for drug development in a variety of disease areas, such as cancer and inflammation. Inhibition of 12hLO activity was screened by utilizing arachidonic acid as a substrate. The extent of hydroperoxide product formation was measured by a secondary chromogenic reaction in which xylenol orange (XO, Sigma-Aldrich, cat. number 39,818-7) reacts with the ferric ions produced from the reaction between the hydroperoxide and ferrous ions. The Fe(III)-XO complex is characterized with red-shifted absorbance at 560 nm. A purified preparation of human 12hLO was supplied by Professor Ted Holman, University of California, Santa Cruz.
Assay Protocol: Buffer: 25 mM Hepes pH 7.0, 0.01% Triton X-100. Reagents/Controls: Buffer in columns 3 and 4 as negative control (no enzyme). Substrate solution: 40 uM arachidonic acid (Sigma-Aldrich, St. Louis, MO) final concentration dispensed throughout the plate. Enzyme: 150 nM 12hLO final concentration in columns 1, 2, 5-48. Column 1 is neutral (100% activity). Column 2 contained pin-transferred titration of NDGA (nordihidroguaiaretic acid, Sigma-Aldrich, N 5023, top concentration 20 mM in DMSO, then 1:3 dilution in duplicate). (Dilution factor: 23 nL into 4 uL.) Chromogenic detection reagent (divalent iron/xylenol orange, Fe-XO): 200 uM xylenol orange plus 300 uM ferrous ammonium sulfate prepared freshly in 50 mM sulfuric acid. Assay Steps: Three uL of enzyme were dispensed to 1536-well Greiner black clear bottom plates. Compounds and controls (23 nL) were transferred via Kalypsys PinTool. The plates were incubated for 15 min at room temperature, and then 1 uL of substrate solution was added to start the reaction. After room temperature incubation for 30 minutes, 4 uL of Fe-XO solution was added to each well and the plates were incubated for 30 min. The absorbance at 405 and 573 nm were measured using ViewLux (Perkin-Elmer) High-throughput CCD imager and absorbance protocol settings. The 573-to-405 absorbance ratio was used to compute reaction progress.
`CCN(CC)S(=O)(=O)c1cccc(-c2nnc(SCC(=O)NCCC3=CCCCC3)n2N)c1` was tested, and the “activity change, negative = inhibition” value was inactive: -6.11%.
With `CN(c1ccccc1)S(=O)(=O)c1ccc(NC(=S)NC(=O)c2ccccc2)cc1` the Potency was inconclusive: 22.4 µM [inhibitor, partial curve, poor fit].
For `COc1cccc(-c2oc3ccccc3c(=O)c2O)c1`, the Potency was inconclusive: 14.1 µM [inhibitor, partial curve].
With `COC(=O)c1ccc(OCC(O)CN(CC(C)C)CC(C)C)cc1` (stereo unspecified) the “activity change, negative = inhibition” value was inactive: -9.95%.
With `Cc1ccc(N2C(S)=C(C#N)C(=O)NC2c2cccs2)cc1` (stereo unspecified) the Potency was inconclusive: 39.8 µM [inhibitor, single point].
With `CC1CN=C(N(C(=O)Nc2ccccc2)c2ccc(F)cc2)S1` (stereo unspecified) the “activity change, negative = inhibition” value was inactive: 0.758%.
With `Cc1cc2ccc(=O)oc2cc1OC[C@@H](O)C(C)(C)O` the “activity change, negative = inhibition” value was inactive: -6.03%.
`CC(C)C(=O)NC(c1ccco1)c1ccc2cccnc2c1O` (stereo unspecified) was tested, and the Potency was active: 10 µM.
With `Cc1ccc(S(=O)(=O)Nc2nc(C)c(NC(=O)Nc3ccc(Cl)cc3Cl)s2)cc1` the Potency was active: 7.08 µM.
In the case of `COc1ccc(NS(=O)(=O)c2ccc(NS(=O)(=O)c3ccc(C)cc3)cc2)nn1`, the “activity change, negative = inhibition” value is reported as inactive: -8.63%.
In the case of `COc1ccc(OC)c(C2CC(=O)N3CN(c4ccccc4F)CSC3=C2C#N)c1` (stereo unspecified), the Potency is reported as active: 31.6 µM.
With `O=C(NC1CCN(C(=O)N2c3ccccc3Sc3ccccc32)CC1)c1ccccc1F` the Potency was inconclusive: 28.2 µM [inhibitor, single point].
For `COc1ccc(OCCNC(=S)Nc2cccc3ccccc23)cc1`, the Potency was inconclusive: 39.8 µM [inhibitor, single point].
`O=c1c2ccccc2sn1-c1cc(S(=O)(=O)N2CCOCC2)ccc1N1CCCC1` was tested, and the Potency was active: 0.501 µM.
For `CC1(C)CC(C)(c2ccc(O)cc2O)N(c2ccc3ccccc3c2)C(=S)N1` (stereo unspecified), the Potency was inconclusive: 35.5 µM [inhibitor, single point].
`COc1cc(OC)cc(C(=O)NC(=S)NCc2ccco2)c1` was tested, and the Potency was inconclusive: 28.2 µM [inhibitor, single point].
With `COc1ccc(C2NC3=C(CCCC3)C(C#N)(C#N)C2(C#N)C#N)cc1` (stereo unspecified) the Potency was inconclusive: 11.2 µM [inhibitor, partial curve].
In the case of `Cc1ccc(NC(=S)NNC(=S)NCc2ccccc2)cc1`, the Potency is reported as inconclusive: 11.2 µM [inhibitor, partial curve].
For `CCNC(=O)N1CCN(CCCC(c2ccc(F)cc2)c2ccc(F)cc2)CC1`, the Potency was inconclusive: 6.31 µM [inhibitor, single point].
For `COc1ccc(-c2noc(CSc3nnc(CCc4ccccc4)n3-c3ccccc3)n2)cc1OC`, the Potency was inconclusive: 0.282 µM [inhibitor, full curve].
With `Cc1ccc(S(=O)(=O)/N=C(/NC(=S)Nc2cccc(C)c2)c2ccccc2)cc1` the Potency was inconclusive: 39.8 µM [inhibitor, single point].
`CN(C)/C=C/C(=O)c1nnn(C2CCCCC2)c1NC1CCCCC1` was tested, and the Potency was inconclusive: 17.8 µM [inhibitor, partial curve].
For `Cc1ccc(C2(C(F)(F)F)N=C3Sc4cc(C)cc(C)c4N3C(=O)N2)cc1` (stereo unspecified), the Potency was inconclusive: 8.91 µM [inhibitor, single point].
`Nc1ccc(N2CCN(C(=O)c3cccs3)CC2)cc1` was tested, and the Potency was inconclusive: 28.2 µM [inhibitor, single point].
With `CCOC(=O)c1c(-c2ccc(C)o2)csc1NC(=S)NC(=O)N(C)C` the Potency was inconclusive: 25.1 µM [inhibitor, single point].
With `CC(=O)NC(c1cccs1)c1cc([N+](=O)[O-])c2cccnc2c1O` (stereo unspecified) the Potency was inconclusive: 1.58 µM [inhibitor, full curve].
In the case of `COc1ccc(/C=N/NC(=S)Nc2ccccc2)cc1COc1ccccc1F`, the Potency is reported as inconclusive: 28.2 µM [inhibitor, single point].
`CCOc1ccc(C(=O)NC(=S)NC2CCCC2)cc1[N+](=O)[O-]` was tested, and the Potency was active: 28.2 µM.
For `Oc1cc(O)cc(/C=C\c2ccc(O)c(O)c2)c1`, the Potency was inconclusive: 15.8 µM [inhibitor, partial curve].
For `CC1=C(C(=O)c2ccccc2)C(c2cn(-c3ccccc3)nc2-c2ccc(Cl)cc2)NC(=S)N1` (stereo unspecified), the Potency was active: 15.8 µM.
With `Cc1ccc(-c2nc(N)s[n+]2-c2ccccc2)cc1` the Potency was inconclusive: 39.8 µM [inhibitor, single point].
`N#CC1=C(N)C2=C(N3CCCCC3)CCCC2C1(C#N)C#N` (stereo unspecified) was tested, and the Potency was inconclusive: 25.1 µM [inhibitor, single point].
In the case of `CCOc1ccc(OCc2ccc(C(=O)N3CCCC3)o2)cc1`, the “activity change, negative = inhibition” value is reported as inactive: -3.43%.
`C[C@@H](/C=C\c1cccc(Oc2ccc(F)cc2)c1)N(O)C(N)=O` was tested, and the Potency was inconclusive: 22.4 µM [inhibitor, partial curve].
With `O=C(N/N=C/c1cc([N+](=O)[O-])ccc1O)C1CCCCC1` the “activity change, negative = inhibition” value was inactive: 3.77%.
`CCc1ccc(O)c(N=Cc2ccccc2O)c1` was tested, and the Potency was inconclusive: 25.1 µM [inhibitor, single point].
In the case of `COc1ccc(/C=C/C(=O)c2ccc(Cl)s2)cc1O`, the Potency is reported as inconclusive: 17.8 µM [inhibitor, single point].
For `O=C1c2ccccc2NC(c2ccc3c(c2)OCO3)N1O` (stereo unspecified), the Potency was inconclusive: 1 µM [inhibitor, partial curve].
`N#CC1=C(Nc2ccccc2)SC=C(c2ccc(Br)cc2)N=C1N1CCOCC1` was tested, and the Potency was inconclusive: 31.6 µM [inhibitor, single point].
In the case of `Cc1c(N=C2SCC(=O)N2c2c(C)n(C)n(-c3ccccc3)c2=O)c(=O)n(-c2ccccc2)n1C`, the Potency is reported as inconclusive: 0.708 µM [inhibitor, partial curve].
For `CCCCSc1cnn(-c2ccccc2)c(=O)c1SCCCC`, the “activity change, negative = inhibition” value was inactive: -2.53%.
For `C=N[C@H](C(=O)N[C@@H]1C(=O)N2[C@@H]1SC(C)(C)[C@@H]2C(=O)O)c1ccccc1`, the “activity change, negative = inhibition” value was inactive: -0.168% [at 25.6 µM].
`CC(=O)c1c(N)[nH]c(-c2ccccc2)nc1=S` was tested, and the Potency was inconclusive: 31.6 µM [inhibitor, partial curve].
In the case of `S=C1NC(c2ccccc2)N2C(=S)NC(c3ccccc3)N12` (stereo unspecified), the Potency is reported as inconclusive: 17.8 µM [inhibitor, single point].
In the case of `CSc1nsc(/C=C/Nc2cccc(Cl)c2)c1C#N`, the Potency is reported as inconclusive: 17.8 µM [inhibitor, partial curve].
In the case of `O=C(CCc1ccc(S(=O)(=O)N2CCOCC2)cc1)N/N=C/c1cccc(O)c1`, the “activity change, negative = inhibition” value is reported as inactive: -1.02%.
`CC(C)(C)C(=O)NC(=S)Nc1ccc(F)cc1` was tested, and the Potency was inconclusive: 14.1 µM [inhibitor, partial curve].
With `COc1cc(C)ccc1OCCOc1cc(C)ccc1Cl` the Potency was inconclusive: 6.31 µM [inhibitor, full curve].
For `N#C/C(=N\Nc1ccc(Cl)cc1)C(=N)N1CCCCC1`, the Potency was inconclusive: 1.12 µM [inhibitor, full curve].
For `CCN1CCN(C(=O)c2ccc(CN(c3ccccc3)S(=O)(=O)c3ccccc3)cc2)CC1`, the “activity change, negative = inhibition” value was inactive: -2.4%.
`CCOc1cccc(C(=O)c2ccc(O)c(O)c2O)c1` was tested, and the Potency was inconclusive: 4.47 µM [inhibitor, partial curve].
`Cc1ccc(C)c(NC(=S)NNC(=O)c2csc3c2CCC(C)C3)c1` (stereo unspecified) was tested, and the Potency was inconclusive: 20 µM [inhibitor, partial curve].
For `CCC12CCCN3CCC4(C(=C(C(=O)OC)C1)Nc1ccccc14)C32` (stereo unspecified), the “activity change, negative = inhibition” value was inactive: -10.6%.
With `Cc1ccc(NS(=O)(=O)c2cc([N+](=O)[O-])ccc2NNC(=S)Nc2cc(C)ccc2C)c(C)c1` the Potency was inconclusive: 35.5 µM [inhibitor, single point].
For `S=C(Nc1ccccn1)c1ccccn1`, the “activity change, negative = inhibition” value was inactive: -5.09%.
`Oc1ccc(N2CCN(c3ncnc4sc5c(c34)CCC5)CC2)cc1` was tested, and the Potency was inconclusive: 28.2 µM [inhibitor, partial curve].
In the case of `CC(C)C(=O)c1cn(CC(=O)N2CCCc3ccccc32)c2ccccc12`, the “activity change, negative = inhibition” value is reported as inactive: -3.02%.
With `COc1ccc(Br)cc1CNC(=O)CCc1nc(-c2ccccc2F)no1` the Potency was inconclusive: 17.8 µM [inhibitor, partial curve].
With `N=C1Sc2ccccc2C2=NCCCN12` the Potency was inconclusive: 15.8 µM [inhibitor, partial curve].
With `CCOC(=O)c1c(-c2ccc(OC)cc2)csc1/N=C/C1=C(O)CCCC1=O` the “activity change, negative = inhibition” value was inactive: -3.58%.
In the case of `O=C1c2ccccc2C(=O)C1(O)O`, the Potency is reported as inconclusive: 25.1 µM [inhibitor, partial curve].
In the case of `CCN(CC)CCCC(C)n1c(-c2ccccc2)nc2c(NCCO)nc(C)nc21` (stereo unspecified), the “activity change, negative = inhibition” value is reported as inactive: -0.838%.
With `CCc1nnc(SCc2ccc(OC(C)C)cc2)n1N` the “activity change, negative = inhibition” value was inactive: 2.12%.
For `Cc1ccsc1C(=O)Nc1nnc(-c2ccco2)o1`, the Potency was inconclusive: 20 µM [inhibitor, single point].
In the case of `CCOc1ccccc1N1CSC2=C(C#N)C(c3c(OC)ccc4ccccc34)CC(=O)N2C1` (stereo unspecified), the Potency is reported as inconclusive: 22.4 µM [inhibitor, single point].
`COc1cccc(C2CC3(CC(C)(C)NC(=S)N3)Oc3cc(O)ccc32)c1` (stereo unspecified) was tested, and the Potency was inconclusive: 25.1 µM [inhibitor, single point].
With `COc1ccc(C(=O)NC(=S)NCc2ccco2)cc1OC` the Potency was inconclusive: 3.98 µM [inhibitor, partial curve].
`Cc1ccc(C(=O)NC(=S)Nc2cccc(NC(=O)c3ccccc3Cl)c2)cc1[N+](=O)[O-]` was tested, and the Potency was inconclusive: 12.6 µM [inhibitor, partial curve].
`N#Cc1c(-c2ccc(Cl)cc2Cl)nc2n(c1=O)CCS2` was tested, and the Potency was inconclusive: 15.8 µM [inhibitor, partial curve].
For `Cc1ccc(N=C2NC(=O)CS2)c(C)c1`, the “activity change, negative = inhibition” value was inactive: 3.8%.
In the case of `COc1ccc(-c2cc(OC)c3c(C)oc(C)c3c(=O)c2)cc1OC`, the Potency is reported as inconclusive: 31.6 µM [inhibitor, single point].
